Experimental findings from PubChem BioAssay AID1259407 (Chemical Carcinogenesis Research Information System (CCRIS), 2018) are described below.

The structures appear in SMILES notation. Entries after “also recorded” stand apart in the source; their conditions may differ. Not every entry of the source has a single result; some have several. This is not the full list of results. An entry can have further records. How the calls were made is not given here. Values that stand side by side differ for a reason that is not stated; some may be repeats, others may stem from another dose, organism or construct than stated. A tag in brackets gives the origin of a value. A, B and so on number the origins entry by entry. Marks such as (2×) count equal records among those shown.

The series has as its system CCRIS mutagenicity, Ames/micronucleus/aberration tests. The experiment in a line: CCRIS mutagenicity studies.
The mark [1] stands for this setting: Test System: AMES SALMONELLA TYPHIMURIUM, Strain/Indicator: TA100, Metabolic Activation: RAT, LIVER, S-9, AROCLOR 1254, Method: STANDARD PLATE.
The mark [2] stands for this setting: Test System: AMES SALMONELLA TYPHIMURIUM, Strain/Indicator: TA98, Metabolic Activation: NONE, Method: STANDARD PLATE.
The mark [3] stands for this setting: Test System: AMES SALMONELLA TYPHIMURIUM, Strain/Indicator: TA100, Metabolic Activation: NONE, Method: STANDARD PLATE.
Setting [4] is: Test System: AMES SALMONELLA TYPHIMURIUM, Strain/Indicator: TA100, Metabolic Activation: RAT, LIVER, S-9, AROCLOR 1254, Method: PREINCUBATION

Take `Nc1ccc2cc3ccc(N)cc3nc2c1`: the mutagenic call runs as follows: (Test System: AMES SALMONELLA TYPHIMURIUM, Strain/Indicator: TA100, Metabolic Activation: HAMSTER, LIVER, S-9, AROCLOR 1254, Method: STANDARD PLATE) “inactive; negative and active; positive (2×)”; (Test System: AMES SALMONELLA TYPHIMURIUM, Strain/Indicator: TA100, Metabolic Activation: HAMSTER, LIVER, S-9, Method: STANDARD PLATE) “active; positive and inactive; negative”; (Test System: AMES SALMONELLA TYPHIMURIUM, Strain/Indicator: TA100, Metabolic Activation: MOUSE, LIVER, S-9, AROCLOR 1254, Method: STANDARD PLATE) “active; positive (2×) and inactive; negative”; (Test System: AMES SALMONELLA TYPHIMURIUM, Strain/Indicator: TA100, Metabolic Activation: MOUSE, LIVER, S-9, Method: STANDARD PLATE) “inactive; negative and active; positive”; (Test System: AMES SALMONELLA TYPHIMURIUM, Strain/Indicator: TA1535, Metabolic Activation: HAMSTER, LIVER, S-9, AROCLOR 1254, Method: STANDARD PLATE) “inactive; negative (2×) and active; positive”; (Test System: AMES SALMONELLA TYPHIMURIUM, Strain/Indicator: TA1535, Metabolic Activation: HAMSTER, LIVER, S-9, Method: STANDARD PLATE) “inactive; negative (2×) and active; positive”. Moreover, the mutagenic call by setting is: (Test System: AMES SALMONELLA TYPHIMURIUM, Strain/Indicator: TA1535, Metabolic Activation: MOUSE, LIVER, S-9, Method: STANDARD PLATE) “inactive; negative (2×) and active; positive”; (Test System: E. COLI, Strain/Indicator: WP2 UVRA, Metabolic Activation: MOUSE, LIVER, S-9, AROCLOR 1254, Method: STANDARD PLATE) “inactive; negative and active; positive (2×)”; (Test System: E. COLI, Strain/Indicator: WP2 UVRA, Metabolic Activation: RAT, LIVER, S-9, AROCLOR 1254, Method: STANDARD PLATE) “inactive; negative and active; positive (2×)”; (Test System: E. COLI, Strain/Indicator: WP2 UVRA, Metabolic Activation: RAT, LIVER, S-9, Method: STANDARD PLATE) “inactive; negative and active; positive”.

Turning to `CC(=O)Nc1ccc2c(c1)Cc1ccccc1-2`, the mutagenic call under setting [1] was “inactive; negative [study A] and active; positive [study B] and inactive; negative [study C]”; the mutagenic call (Test System: AMES SALMONELLA TYPHIMURIUM, Strain/Indicator: TA1537, Metabolic Activation: RAT, LIVER, S-9, AROCLOR 1254, Method: STANDARD PLATE) was “active; positive [study A] and inactive; negative [study B]”.

Take `C=CC(C)=O`: the mutagenic call (Test System: AMES SALMONELLA TYPHIMURIUM, Strain/Indicator: TA100, Metabolic Activation: NONE, Method: PREINCUBATION) is “active; positive [study A] and inactive; negative [study B]”.

On to `C=CCNc1ccccc1.C=CCNc1ccccc1.C=CCNc1ccccc1.[Cl-].[Cl-].[Rh].[Rh]`, for which the mutagenic call runs as follows: under setting [2], “active; positive and inactive; negative”; under setting [3], “active; positive and inactive; negative”; (Test System: AMES SALMONELLA TYPHIMURIUM, Strain/Indicator: TA2410, Metabolic Activation: NONE, Method: STANDARD PLATE) “active; positive and inactive; negative”.

With `Nc1ccccc1N`, the mutagenic call was “inactive; negative [study A] and active; positive [study B]” under setting [4]; “inactive; negative [study A] and active; positive [study B]” under setting [1]; “inactive; negative and active; positive” (Test System: E.COLI, Strain/Indicator: WP2UVRA, Metabolic Activation: RAT LIVER S-9, PHENOBARBITAL AND BETA-NAPHTHOFLAVONE, Method: PREINCUBATION).

Turning to `Nc1cc(Cl)c(N)c(Cl)c1`, the mutagenic call (End Point: IN VITRO CHROMOSOMAL ABERRATIONS, Test System: CHO CELLS, Metabolic Activation: RAT, LIVER, S-9, AROCLOR 1254) is “active; positive; weak response; also recorded: active; positive; precipitation occurred at 4000 ug/ml”.

With `O=C/C(Br)=C(/Br)C(=O)O`, the mutagenic call (End Point: In vitro micronucleus, Test System: Human lymphoblastoid (TK6) cells, Metabolic Activation: None) is “active; positive (only at highest dose) and inactive; negative”.

On to `c1ccc2c3c(ccc2c1)-c1cccc2cccc-3c12`, for which the mutagenic call by setting is: (Test System: AMES SALMONELLA TYPHIMURIUM, Strain/Indicator: TA97A, Metabolic Activation: RAT, LIVER, S-9, AROCLOR 1254, Method: PREINCUBATION) “active; positive [study A] and inactive; negative [study B]”; (Test System: AMES SALMONELLA TYPHIMURIUM, Strain/Indicator: TA98, Metabolic Activation: RAT, LIVER, S-9, AROCLOR 1254, Method: PREINCUBATION) “active; positive [study A] and inactive; negative [study B]”; under setting [4], “active; positive [study A] and inactive; negative [study B]”.

In the case of `ClC(Cl)(Cl)Cl`, the mutagenic call by setting is: under setting [2], “inactive; negative [study A] and active; positive [study B]”; under setting [3], “inactive; negative [study A] and active; positive [study B]”; under setting [1], “inactive; negative [study A] and active; positive [study B]”; (Test System: E. coli, Strain/Indicator: WP2uvrA/pKM101, Metabolic Activation: None, Method: Gas exposure method) “inactive; negative and active; positive”; (Test System: E. coli, Strain/Indicator: WP2uvrA/pKM101, Metabolic Activation: Rat, Liver, S9, Sodium phenobarbital and 5,6-benzoflavone (10%), Method: Gas exposure method) “inactive; negative and active; positive”.

`C=C(C)C(=O)OCC(CC)(COC(=O)C(=C)C)COC(=O)C(=C)C`: the mutagenic call is, setting by setting: (Test System: MOUSE LYMPHOMA, Strain/Indicator: L5178Y (TK+/TK-), Metabolic Activation: NONE, Method: SUSPENSION/PLATE) “inactive; negative [study A]; also recorded: active; positive [study B]; also recorded: inactive; negative. reevaluation of results: negative [study C]”; (Test System: MOUSE LYMPHOMA, Strain/Indicator: L5178Y (TK+/TK-), Metabolic Activation: RAT, LIVER, S-9, AROCLOR 1254, Method: SUSPENSION/PLATE) “inactive; negative [study A]; also recorded: inactive; negative. reevaluation of results: negative [study B]”.

Regarding `O=C(O)c1ccc([N+](=O)[O-])cc1`, the mutagenic call (Test System: AMES SALMONELLA TYPHIMURIUM, Strain/Indicator: TA98, Metabolic Activation: NONE, Method: PREINCUBATION) was “inactive; negative [study A] and active; positive [study B] and inactive; negative [study C]”.

Consider `Nc1cc(Cl)ccc1O`, for which the mutagenic call was “active; positive (structural changes and ploidy); also recorded: active; positive (structural changes) (2×)” (End Point: In vitro chromosomal aberrations, Test System: Chinese hamster lung (CHL/IU) cells, Metabolic Activation: None); “inactive; negative and active; positive” (Test System: AMES SALMONELLA TYPHIMURIUM, Strain/Indicator: TA100, Metabolic Activation: RAT, LIVER, S-9, PHENOBARBITAL AND BETA-NAPHTHOFLAVONE, Method: PREINCUBATION); “inactive; negative and active; positive” (Test System: AMES SALMONELLA TYPHIMURIUM, Strain/Indicator: TA1537, Metabolic Activation: RAT, LIVER, S-9, PHENOBARBITAL AND BETA-NAPHTHOFLAVONE, Method: PREINCUBATION).

As to `O=C=Nc1ccc(Cc2ccccc2N=C=O)cc1`, the mutagenic call by setting is: (Test System: AMES SALMONELLA TYPHIMURIUM, Strain/Indicator: TA98, Metabolic Activation: RAT, LIVER, S-9, AROCLOR 1254 (30%), Method: STANDARD PLATE) “active; positive and inactive; negative”; (Test System: AMES SALMONELLA TYPHIMURIUM, Strain/Indicator: TA1538, Metabolic Activation: RAT, LIVER, S-9, AROCLOR 1254 (30%), Method: STANDARD PLATE) “active; positive and inactive; negative”.

Turning to `C1COCOC1`, where the note is “End Point: IN VITRO CHROMOSOMAL ABERRATIONS, Test System: CHINESE HAMSTER OVARY CELLS, Metabolic Activation: NONE”, the mutagenic call is “inactive; positive; authors report this result is invalid because a negative control had s; also recorded: inactive; negative”.

Take `CC[C@]1(O)CC[C@H]2[C@@H]3CCC4=CC(=O)CC[C@@H]4[C@H]3CC[C@@]21C`: where the note is “Test System: UDS RAT HEPATOCYTES, Strain/Indicator: THY INCORP (16 HR), Metabolic Activation: NONE, Method: SCINTILLATION COUNTING”, the mutagenic call was “active; positive and inactive; negative”.

Turning to `CC1=CC(=O)CC(C)(C)C1`, where the note is “End Point: IN VITRO CHROMOSOMAL ABERRATIONS, Test System: CHINESE HAMSTER LUNG FIBROBLAST CELLS (CHL/IU), Metabolic Activation: NONE”, the mutagenic call was “inactive; negative (2×) and active; positive (structural changes)”.

`OO`: the mutagenic call is “active; positive [study A] and inactive; negative [study B]” (Test System: AMES SALMONELLA TYPHIMURIUM, Strain/Indicator: TA97, Metabolic Activation: NONE, Method: PREINCUBATION); “inactive; negative [study A] and active; positive [study B]” (Test System: AMES SALMONELLA TYPHIMURIUM, Strain/Indicator: TA1537, Metabolic Activation: NONE, Method: PREINCUBATION).

Turning to `CC(=O)c1ccncc1`, the mutagenic call (End Point: IN VITRO CHROMOSOMAL ABERRATIONS, Test System: CHO-LB CELLS, Metabolic Activation: NONE) was “active; positive and inactive; negative”.
